Viability of KB3-1 and Nalm-6 cells after 48 h of drug alone (CellTiter-Glo), 11 doses over about 4.5 log units. % of DMSO wells, lower = more cell loss; AC50 from the fitted curve, lower = more potent. No active / inactive call. Nalm-6 was screened in two runs. AC50 is listed only for well-fitted inhibitory curves. KB3-1 is a HeLa-derived carcinoma line, Nalm-6 a B-cell precursor leukaemia line.
Columns and labels:
KB3-1 [1] = assay: viability (% of DMSO control); higher = more viable cells
Experimental: (§1)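 Eleven-dose screen of the NCATS MIPE 3 library on cells without co-treatment; CellTiter-Glo after 48 h, as % of DMSO wells.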

Nalm-6 [2] = assay: as above
Experimental: as §1

KB3-1 [3] = assay: log AC50 of viability decrease (48 h) (log10 M); higher = less potent
Experimental: (§2)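 Eleven-dose screen of the NCATS MIPE 3 library on cells without co-treatment; CellTiter-Glo after 48 h. AC50 from the curve fit; only inhibitory curves of the better fit classes are listed.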

Nalm-6 [4] = assay: as above
Experimental: as §2

Row | SMILES | viability (KB3-1 [1]; 0.00078 µM) | viability (KB3-1 [1]; 0.00234 µM) | viability (KB3-1 [1]; 0.00702 µM) | viability (KB3-1 [1]; 0.0211 µM) | viability (KB3-1 [1]; 0.0632 µM) | viability (KB3-1 [1]; 0.19 µM) | viability (KB3-1 [1]; 0.569 µM) | viability (KB3-1 [1]; 1.71 µM) | viability (KB3-1 [1]; 5.12 µM) | viability (KB3-1 [1]; 15.4 µM) | viability (KB3-1 [1]; 46.1 µM) | viability (Nalm-6 [2]; run: 1, 0.00078 µM) | viability (Nalm-6 [2]; run: 1, 0.00234 µM) | viability (Nalm-6 [2]; run: 1, 0.00702 µM) | viability (Nalm-6 [2]; run: 1, 0.0211 µM) | viability (Nalm-6 [2]; run: 1, 0.0632 µM) | viability (Nalm-6 [2]; run: 1, 0.19 µM) | viability (Nalm-6 [2]; run: 1, 0.569 µM) | viability (Nalm-6 [2]; run: 1, 1.71 µM) | viability (Nalm-6 [2]; run: 1, 5.12 µM) | viability (Nalm-6 [2]; run: 1, 15.4 µM) | viability (Nalm-6 [2]; run: 1, 46.1 µM) | viability (Nalm-6 [2]; run: 2, 0.00078 µM) | viability (Nalm-6 [2]; run: 2, 0.00234 µM) | viability (Nalm-6 [2]; run: 2, 0.00702 µM) | viability (Nalm-6 [2]; run: 2, 0.0211 µM) | viability (Nalm-6 [2]; run: 2, 0.0632 µM) | viability (Nalm-6 [2]; run: 2, 0.19 µM) | viability (Nalm-6 [2]; run: 2, 0.569 µM) | viability (Nalm-6 [2]; run: 2, 1.71 µM) | viability (Nalm-6 [2]; run: 2, 5.12 µM) | viability (Nalm-6 [2]; run: 2, 15.4 µM) | viability (Nalm-6 [2]; run: 2, 46.1 µM) | log AC50 of viability decrease (KB3-1 [3]) | log AC50 of viability decrease (Nalm-6 [4]; run: 1) | log AC50 of viability decrease (Nalm-6 [4]; run: 2)
1 | C[C@@]12O[C@@H](C[C@]1(O)CO)n1c3ccccc3c3c4c(c5c6ccccc6n2c5c31)CNC4=O [Lestaurtinib] | 104% | 96.4% | 83.7% | 64.3% | 50.6% | 49.7% | 50.4% | 48.8% | 46.1% | 47.8% | 1.11% | 107% | 115% | 86.1% | 77.1% | 56.8% | 51.1% | 41.1% | 38% | 17.6% | 4.74% | 1.03% | 100% | 102% | 90.9% | 80.2% | 62.1% | 53.1% | 41.1% | 18.6% | 7.47% | 2.19% | 0.673% | -7.53 | -6.93 | -6.68
2 | C=CCn1c(=O)c2cnc(Nc3ccc(N4CCN(C)CC4)cc3)nc2n1-c1cccc(C(C)(C)O)n1 [MK-1775] | 107% | 99.2% | 97.6% | 94.2% | 81.8% | 51.1% | 8.79% | 6.85% | 6.45% | 6.67% | 7.48% | 1.81% | 9.67% | 24.9% | 33.9% | 47.1% | 17.9% | 4.83% | 3.23% | 3.77% | 4.82% | 5.88% | 105% | 112% | 114% | 113% | 99.8% | 56.3% | 14.8% | 4.46% | 4.11% | 5.02% | 5.71% | -6.78 |  | -6.73
3 | CCCCCCCCCCCCCC(=O)N[C@H](CO)[C@H](O)c1ccc([N+](=O)[O-])cc1 [D-NMAPPD] | 101% | 98.9% | 100% | 102% | 100% | 103% | 102% | 95.6% | 96.4% | 85.1% | 3.29% | 105% | 106% | 118% | 117% | 116% | 121% | 120% | 112% | 102% | 56.4% | 3.55% | 112% | 100% | 106% | 107% | 109% | 112% | 103% | 108% | 106% | 57.7% | 4.72% | -4.63 | -4.83 | -4.78
